Test results from publication PMC4336329 (PLoS ONE, 2015).
The campaign covered roughly 310,000 compounds. About 14,000 (4.5%) showed an effect of 50% or more. The effect is printed as a negative number. The list shows a part of the results.

Biological target: human ether-à-go-go-related gene (hERG) potassium channel (human, UniProt Q12809)
Assay: primary screen, population patch clamp on CHO cells stably expressing hERG
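Further: peak tail current of the secondary pulse compared with the same well before compound.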

Chain of human ether-à-go-go-related gene (hERG) potassium channel (Q12809 whole entry, looked up): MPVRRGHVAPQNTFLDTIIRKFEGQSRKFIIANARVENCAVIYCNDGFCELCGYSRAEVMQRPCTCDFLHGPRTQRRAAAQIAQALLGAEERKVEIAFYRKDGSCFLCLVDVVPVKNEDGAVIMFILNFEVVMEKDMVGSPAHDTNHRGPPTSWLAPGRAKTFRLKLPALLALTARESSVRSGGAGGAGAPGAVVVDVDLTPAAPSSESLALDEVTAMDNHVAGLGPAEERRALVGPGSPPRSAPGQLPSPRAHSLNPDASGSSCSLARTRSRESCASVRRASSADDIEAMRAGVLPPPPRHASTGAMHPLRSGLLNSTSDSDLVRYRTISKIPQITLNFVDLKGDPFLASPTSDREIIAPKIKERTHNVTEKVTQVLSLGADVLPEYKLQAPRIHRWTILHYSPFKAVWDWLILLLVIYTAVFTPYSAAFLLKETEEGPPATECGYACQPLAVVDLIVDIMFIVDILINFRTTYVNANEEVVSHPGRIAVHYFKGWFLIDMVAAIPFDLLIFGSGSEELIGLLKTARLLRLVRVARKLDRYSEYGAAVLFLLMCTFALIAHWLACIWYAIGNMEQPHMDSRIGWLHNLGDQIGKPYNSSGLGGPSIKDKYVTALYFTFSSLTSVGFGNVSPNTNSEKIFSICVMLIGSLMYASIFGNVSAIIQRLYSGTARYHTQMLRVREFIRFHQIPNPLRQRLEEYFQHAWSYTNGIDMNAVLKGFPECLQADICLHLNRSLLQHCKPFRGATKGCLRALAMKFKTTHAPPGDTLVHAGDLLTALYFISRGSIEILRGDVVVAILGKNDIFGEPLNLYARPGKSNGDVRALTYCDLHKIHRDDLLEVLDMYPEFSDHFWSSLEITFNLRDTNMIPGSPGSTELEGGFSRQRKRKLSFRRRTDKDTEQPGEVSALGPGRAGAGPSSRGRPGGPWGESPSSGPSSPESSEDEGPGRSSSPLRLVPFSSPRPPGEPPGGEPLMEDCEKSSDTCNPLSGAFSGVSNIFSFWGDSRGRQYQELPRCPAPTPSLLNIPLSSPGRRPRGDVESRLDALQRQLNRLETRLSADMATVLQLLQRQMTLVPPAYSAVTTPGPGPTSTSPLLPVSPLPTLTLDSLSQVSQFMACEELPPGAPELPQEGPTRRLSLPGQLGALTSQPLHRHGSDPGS

Row | SMILES | hERG current change (%, negative = inhibition) at 10uM [%]
1 | COc1ccc(NC(=O)CSc2ccccn2)c([N+](=O)[O-])c1 | 1.83
2 | S=c1[nH]c2ccccc2n1Cc1ccccc1 | 19.9
3 | O=C1CCC([N+](=O)[O-])C(c2cccc(Cl)c2Cl)N1 (stereo not drawn) | -6.81
4 | CCOC(=O)C1(Cc2ccc(OC)cc2)CCN(C(=O)c2cc3ccccc3[nH]2)CC1 | 11.5
5 | CC(OC(=O)CN1C(=O)C2CCCCC2C1=O)C(=O)Nc1ncc(Cl)cc1Cl (stereo not drawn) | -2.76
6 | CC(C)C(=O)Nc1nnc(SCC(=O)N2C(C)CCCC2C)s1 (stereo not drawn) | 3.31
7 | O=C(Cn1nnc(-c2ccccc2)n1)Nc1ccccc1N1CCOCC1 | -26
8 | NC(=O)C(=O)N/N=C1\CCc2ccccc21 | 19.3
9 | COc1cccc(CNC(=O)COC(=O)C2CC3CCCC(C2)C3=O)c1 (stereo not drawn) | 18
10 | Cn1nc(C(=O)NCC(=O)Nc2ccc(F)c(F)c2F)c2ccccc2c1=O | 8.87
11 | CN(C)c1ccc(N2C(=NC(=O)CC3CCCCC3)SC3CS(=O)(=O)CC32)cc1 (stereo not drawn) | 6.21
12 | Clc1ccc(CNc2ccccc2NCc2ccc(Cl)nc2)cn1 | -12.1
13 | Cc1cc(C)nc(SCc2ccc(F)cc2)n1 | -4.43
14 | CCn1c(SCC(=O)Nc2cc(C)on2)nc2c1c(=O)n(C)c(=O)n2C | 3.53
15 | CCCNS(=O)(=O)c1ccc(OCC(=O)N2CCOCC2)cc1 | -4.39
16 | CN(Cc1ccccc1)C(=O)c1[nH]cnc1C(=O)N[C@@H](CCCCNC(=O)OC(C)(C)C)C(=O)OC(C)(C)C | -17.1
17 | Nc1c(-c2ccccn2)cnn1-c1nc(-c2ccc(F)cc2)cs1 | 10.6
18 | Cc1csc(N(C)C(=O)CSc2nnc(COc3cccc4ccccc34)o2)n1 | 4.34
19 | O=C(CS(=O)(=O)c1c[nH]c2ccccc12)Nc1ccc(F)cc1 | -21.8
20 | Cc1cc(CC(=O)[O-])n(C)c1C(=O)c1ccc(Cl)cc1.[Na+] | 9.57
21 | COc1ccc(OC)c(NC(=O)C2CCN(S(=O)(=O)c3c(C)noc3C)CC2)c1 | -19.2
22 | CC(=O)Nc1cccc(NC(=O)c2cc(-c3ccccn3)nc3ccc(Cl)cc23)c1 | -11

Row | SMILES | hERG current change (%, negative = inhibition) at 10uM [%]
23 | O=C(c1ccco1)N1CCN(c2nc3ccccc3c(=O)n2-c2ccccc2)CC1 | -54.9
24 | COC(=O)c1ccc(OC(=O)C2CC(=O)N(c3cccc(C)c3)C2)cc1 (stereo not drawn) | 4.38
25 | Cc1ccc(NC(=O)NC(=S)NC(=O)c2ccccc2)cc1 | -21.8
26 | COc1ccc(C(=O)NCCC(=O)N2CCC3(CC2)NCCc2[nH]cnc23)cc1 | 26.5
27 | CC(=O)c1ccc(Cc2cnc(N)s2)cc1 | -3.75
28 | COc1ccccc1CNC(=O)COC(=O)Cc1cccs1 | 22
29 | Cc1cc(C(=O)OCC(=O)N(CC(C)C)c2c(N)n(Cc3ccccc3)c(=O)[nH]c2=O)c(C)o1 | -0.0284
30 | CN(C)/C=C/c1c([N+](=O)[O-])c2ccc(O)cc2n1-c1ccccc1 | 15.6
31 | Cc1c(O)ccc(C(=O)CN2CCN(Cc3ccc4c(c3)OCO4)CC2)c1O | -46.6
32 | O=C(CN1C(=O)COc2ccc(Cl)cc21)N1CCOCC1 | 23.6
33 | COC(=O)C1=C(C(=O)OC)SC(=C2C(=S)C(C)(C)N(C(=O)C3CC3)c3ccccc32)S1 | -3.07
34 | O=C(c1ccc2c3c(cccc13)CC2)N1CCN(c2ncccn2)CC1 | -7.42
35 | COc1ccccc1NC(=O)CCc1nnc2ccc(NCc3ccco3)nn12 | -6.9
36 | CN(Cc1cccs1)C(=O)c1cc(S(=O)(=O)N2CCOCC2)ccc1F | 0.54
37 | Br.CC(=O)c1cccc(N=c2scc(-c3ccc(S(=O)(=O)N4CCOCC4)cc3)n2CCO)c1 | -41
38 | CCc1ccc(OCC(=O)OC2CCS(=O)(=O)C2)cc1 (stereo not drawn) | 1.48
39 | Cc1ccc(-n2nc3ccc(NC(=O)C(C)C)cc3n2)cc1 | 18.9
40 | CSC(=NNC(=O)c1ccc(O)cc1)SC | 11.7
41 | CSc1nnc(C(C)(C)C)c(=O)n1/N=C/c1ccccc1 | -9.16
42 | Oc1ccccc1N1CCN(c2ncnc3scc(-c4ccccc4)c23)CC1 | 4.04
43 | CC(=O)N(C1=C(N)C(=O)c2ccccc2C1=O)C(C)C | 18.4
44 | O=C(Nc1ccc(Cl)cc1Cl)c1ccc(Br)o1 | 10.7

Row | SMILES | hERG current change (%, negative = inhibition) at 10uM [%]
45 | CCC(=O)Nc1ccccc1C(=O)OCC(=O)c1cccc2ccccc12 | -8.15
46 | Cn1c(=O)oc2cc(S(=O)(=O)NCCN3CCCCCC3)ccc21 | 9.75
47 | CC(C)(C)C(CN1CCCC1)OC(=O)c1ccccc1.Cl (stereo not drawn) | -0.126
48 | COCC1CCN(C(=O)c2cc(COc3ccc(C)c(C)c3)on2)C1 (stereo not drawn) | -16
49 | COc1ccc(-c2ocnc2C(=O)N2CCN(C(=O)C(c3ccccc3)c3ccccc3)CC2)cc1 | -10.3
50 | CC(C)CCN1CCNC(=O)C1CC(=O)Nc1ccc(F)cc1 (stereo not drawn) | -0.605
51 | Cc1cc(N2CCOCC2)nc2ccc(NC(=S)N3CCN(Cc4ccccc4)CC3)cc12 | -33.6
52 | CCOc1ccc(OCCC(=O)OCC(=O)NCCc2ccc(S(N)(=O)=O)cc2)cc1 | -4.49
53 | C=CCc1ccc(OCC(O)CN2CCN(c3ccccc3OC)CC2)c(OC)c1.Cl (stereo not drawn) | -16.2
54 | CCCc1nc(SCc2ccc(Cl)cc2Cl)n[nH]1 | -25.6
55 | O=C(c1ccc2ncsc2c1)N1CCN(c2nc3ccccc3s2)CC1 | -12
56 | CCOc1ccccc1NC(=O)NC1Cc2ccccc2C1 | 24.5
57 | CN1CCN(NC(=O)CN2C(=O)/C(=C/c3ccccc3F)SC2=S)CC1 | -6.73
58 | Cl.N[C@@H](Cc1ccc(O)cc1)c1nnc([C@H](CCC(=O)O)NC(=O)C2CCNCC2)o1 | 6.03
59 | O=C(NCCCC1CCCC1)C1CCC(=O)N(Cc2ccccc2F)C1 (stereo not drawn) | -9.03
60 | CCOC(=O)c1nn(-c2ccc(F)cc2)c(=O)cc1OCC(=O)Nc1ccc(OCC)cc1 | -3.74
61 | CC(C)Cc1nnc(NC(=O)CC(C)c2ccccc2)s1 (stereo not drawn) | 2.75
62 | O=C(c1cccs1)N(Cc1ccco1)C1CCS(=O)(=O)C1 (stereo not drawn) | -13.5
63 | CC(Sc1nnc(NC2CCCCC2)s1)C(=O)Nc1ccc2c(c1)C(=O)c1ccccc1C2=O (stereo not drawn) | -10.1
64 | COC(=O)C1=C(c2ccc(Cl)c(C(F)(F)F)c2)C[C@@H]2CC[C@H]1N2C(=O)NCCCOC(C)C | -29.8
65 | O=C(NNC(=O)c1ccc2ccccc2c1O)Nc1ccc(F)cc1 | 10.3
66 | CC(=O)N1CCN(C(=S)c2cccc([N+](=O)[O-])c2)CC1 | 8.96

Row | SMILES | hERG current change (%, negative = inhibition) at 10uM [%]
67 | Cc1ccc(CNCC(=O)Nc2ccc(C)cc2Br)cc1 | -10.2
68 | CCCCNCCOCCOc1ccc(Cl)cc1Br.O=C(O)C(=O)O | -57.9
69 | O=C(CC12CC3CC(CC(C3)C1)C2)Nc1ccc(C(=O)O)cc1 | -2.49
70 | COc1ccc(OCc2cc(C(=O)N3CCCCCC3)no2)c(Cl)c1 | -11.7
71 | COc1cc(C(=O)NCc2nnc(SCC(=O)NCc3ccccc3)o2)cc(OC)c1OC | 17.6
72 | Cc1ccc(OCCNC(=O)c2ccc(C)cc2)cc1 | 0.523
73 | O=C(N/N=C/c1ccc(O)cc1)c1ccncc1 | 23.6
74 | CC(C)Cn1c(CCC(N)=O)nnc1SC(C)C(=O)Nc1ccc2c(c1)OCO2 (stereo not drawn) | 7.42
75 | Cc1cc(=O)oc(C)c1C(=O)N1CCc2c([nH]c3ccccc23)C1C(C)C (stereo not drawn) | -2.64
76 | CCCN1CCC(=NNc2ccc(S(=O)(=O)N3CCOCC3)cc2[N+](=O)[O-])CC1 | -17.5
77 | Cc1ccc(N2C(=O)c3ccccc3C2=O)nc1 | 19.7
78 | COCCCN1C(=O)C(=O)/C(=C(/O)c2ccc(S(=O)(=O)N3CCOCC3)cc2)C1c1ccc(F)cc1 (stereo not drawn) | -2.75
79 | O=C(O)C(=O)O.c1ccc2c(CCNC3CCCCC3)c[nH]c2c1 | -6.11
80 | CCCCN(C)CCNC(=O)c1cn(C)c(=O)c2c1c1ccccc1n2C | 2.23
81 | CN(C)c1ccc(/C=C2\CCCCC2=O)cc1 | -3.05
82 | CC(=O)c1c(C)n(C)c2ccc(OC(=O)c3ccc([N+](=O)[O-])cc3)cc12 | 17.2
83 | CN(CC(=O)O)S(=O)(=O)c1ccc2c(c1)n(C)c(=O)c(=O)n2C | 19.1
84 | C=CCN1C=CC(=C/C=C(/C#N)C(=O)OCC)C=C1 | -0.351
85 | CC(=O)C1=C(C)NC(SCC(=O)c2ccc(-c3ccccc3)cc2)=C(C#N)C1c1cccnc1 (stereo not drawn) | 8.4
86 | Cc1nc2ccc(S(=O)(=O)N(C)CC(=O)NCCc3ccccc3)cc2s1 | -3.16
87 | O=C(NC1CCCC1)C(c1ccncc1)N(Cc1ccco1)C(=O)c1ccc(-c2ccccc2)[nH]1 (stereo not drawn) | 1.38
